Reference: PMC4336329 (PLoS ONE, 2015)
Hit rate of the full screen: of about 310,000 compounds, about 14,000 (4.5%) showed an effect of 50% or more. Effects have a minus sign here. This is one part of the list. Where a SMILES comes first, the peptide text is derived from it. The star is where a group is joined. Cbz = O=C(OCc1ccccc1)*

Each compound was assayed against human ether-à-go-go-related gene (hERG) potassium channel (human, UniProt Q12809) (assay: primary screen, population patch clamp on CHO cells stably expressing hERG).
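Note: peak tail current of the secondary pulse compared with the same well before compound.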

Chain of human ether-à-go-go-related gene (hERG) potassium channel (Q12809 whole entry, looked up): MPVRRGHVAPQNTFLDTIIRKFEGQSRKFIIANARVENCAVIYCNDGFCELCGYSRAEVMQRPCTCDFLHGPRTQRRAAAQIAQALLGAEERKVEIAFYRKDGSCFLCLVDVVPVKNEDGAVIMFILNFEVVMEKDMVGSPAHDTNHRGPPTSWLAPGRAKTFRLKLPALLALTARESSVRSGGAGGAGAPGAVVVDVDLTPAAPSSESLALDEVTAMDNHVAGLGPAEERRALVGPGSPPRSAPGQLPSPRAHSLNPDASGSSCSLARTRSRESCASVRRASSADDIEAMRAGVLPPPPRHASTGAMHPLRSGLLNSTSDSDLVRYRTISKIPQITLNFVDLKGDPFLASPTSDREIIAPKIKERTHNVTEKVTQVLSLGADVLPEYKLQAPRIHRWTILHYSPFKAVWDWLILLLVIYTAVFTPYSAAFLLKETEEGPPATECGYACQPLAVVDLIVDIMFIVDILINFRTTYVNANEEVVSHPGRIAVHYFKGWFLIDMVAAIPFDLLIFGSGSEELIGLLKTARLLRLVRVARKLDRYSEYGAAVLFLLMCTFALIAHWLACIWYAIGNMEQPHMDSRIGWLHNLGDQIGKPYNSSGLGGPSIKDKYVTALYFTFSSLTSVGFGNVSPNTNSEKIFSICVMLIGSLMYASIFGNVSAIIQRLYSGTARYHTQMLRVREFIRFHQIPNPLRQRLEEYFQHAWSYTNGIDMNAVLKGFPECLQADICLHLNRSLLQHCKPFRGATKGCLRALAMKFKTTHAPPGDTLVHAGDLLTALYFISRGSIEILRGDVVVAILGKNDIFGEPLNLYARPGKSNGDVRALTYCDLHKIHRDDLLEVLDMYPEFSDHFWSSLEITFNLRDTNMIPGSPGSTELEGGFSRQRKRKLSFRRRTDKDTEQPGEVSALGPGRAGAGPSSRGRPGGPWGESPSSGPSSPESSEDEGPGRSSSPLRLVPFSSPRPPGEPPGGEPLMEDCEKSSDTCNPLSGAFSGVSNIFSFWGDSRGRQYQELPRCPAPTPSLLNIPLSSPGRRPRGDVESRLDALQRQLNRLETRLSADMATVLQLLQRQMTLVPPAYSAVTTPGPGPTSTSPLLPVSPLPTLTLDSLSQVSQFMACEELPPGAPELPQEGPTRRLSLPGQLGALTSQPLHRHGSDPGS

Row | Structure (SMILES) | hERG current change (%, negative = inhibition) at 10uM [%]
1 | COc1ccccc1NS(=O)(=O)c1ccc(Cl)c(NC(=O)C(C)N2C(=O)c3ccccc3C2=O)c1 (stereo not shown) | -28.3
2 | C/C(=N\N=C\c1ccccc1F)c1nnn(-c2nonc2N)c1C | -10.9
3 | CC(C)NC(=O)c1ccc2c(c1)N(CC(=O)N1CCOCC1)C(=O)C(C)(C)O2 | -7.88
4 | CC1CCCC(NC(=O)COC(=O)c2cccnc2Cl)C1C (stereo not shown) | -2.95
5 | Cn1c(-c2nnn(-c3ccc(F)cc3)n2)cc2ccccc21 | 22.4
6 | COc1ccc(CCNCC(O)COc2cccc(Br)c2)cc1 (stereo not shown) | -50
7 | O=C(c1ccc2ccccc2c1)c1c[nH]cc1-c1ccccc1 | 11.2
8 | CCCCCCN(C(=O)CCCCCN1C(=O)NC(c2ccc(-c3ccccc3)cc2)C(C(=O)OCc2ccccc2)=C1C)C(C)C(=O)NCCCC (stereo not shown) | 15.1
9 | O=C(CSCc1ccccc1)Nc1ccc2c(c1)OCO2 | 7.4
10 | Cc1ccc(/C=N/n2c(-c3ccccc3)n[nH]c2=S)cc1 | 13.7
11 | CCOc1cc(NC(=S)NCCCN(C)C)c(OCC)cc1NC(=O)c1cccs1 | -39.2
12 | Cc1ccnc(NC(=O)CSc2ccc3c(c2)OCCO3)c1 | -4.94
13 | O=C(O)c1ccc2c(c1)N(Cc1cccc(F)c1)C(=O)CS2 | -8.7
14 | CC1(C)C2CCC1(C)C(OC(=O)c1ccccc1C(=O)O)C2 (stereo not shown) | 17.1
15 | CN(C)/C=N/c1cc(=O)[nH]c(=O)n1Cc1ccccc1 | -0.304
16 | COc1cccc(C(=O)n2ccc(-c3cccs3)n2)c1 | 4.32
17 | COc1ccc(S(=O)(=O)Cc2ccc(C(=O)NC(C)C)o2)cc1 | 12.3
18 | Cc1cccc(N2C(=O)C(O)=C(C(=O)c3cccs3)C2c2ccccc2)n1 (stereo not shown) | 5.43
19 | CCOC(=O)C1(Cc2ccc(Cl)cc2)CCN(C(=O)c2cscn2)CC1 | -37.4
20 | O=C(O)c1ccc(CNCc2ccc(Cl)cc2)cc1 | 1.06
21 | CN(C)c1ccc(P(=O)(Nc2ccccc2)N2CCOCC2)c(NC(=O)c2cccs2)c1 (stereo not shown) | 10.7
22 | Cc1ccc(Sc2ccc(C(=O)N3CCOCC3)cc2[N+](=O)[O-])cc1 | -32.3

Row | Structure (SMILES) | hERG current change (%, negative = inhibition) at 10uM [%]
23 | CC(NC(=O)NCCCC(=O)O)(C(F)(F)F)C(F)(F)F | 11.3
24 | Cc1cc2oc(=O)cc(CN3CCOCC3)c2cc1C(C)C | -19.7
25 | Cc1cc(C)cc(C(=O)Nc2nnc(SCC(=O)N3CCCc4ccccc43)s2)c1 | -0.589
26 | COc1ccc(C(=O)N2CCCC(CNC(=O)c3ccc(F)cc3)C2)cc1OC (stereo not shown) | 3.14
27 | COCCN(CC(=O)Nc1ccccc1C(F)(F)F)C(=O)/C=C/c1cc(Cl)c2c(c1)OCO2 | -17.9
28 | O=C(Nc1ccon1)c1sc2cc(F)ccc2c1Cl | 8.23
29 | CC(=O)NC1CC2CCCC(C1)N2CC(=O)N1CCCc2ccccc21 (stereo not shown) | -7.15
30 | Cc1cccc(NC(=O)Cn2cc(C(=O)c3ccco3)c3ccccc32)c1 | -6.56
31 | O=C(Nc1ccccc1OCc1ccccc1)c1ccccc1Br | 16
32 | O=C(CN1C(=O)C2CC=CCC2C1=O)N1CCN(c2ccc([N+](=O)[O-])cc2)CC1 (stereo not shown) | -71.6
33 | CCCCCCN1CC(=O)N2Cc3[nH]c4ccccc4c3C[C@H]2C1=O | -9.11
34 | CCCN1CNC(=S)N(c2ccc(C(=O)OCC)cc2)C1 | 13.6
35 | O=C1OC(N2C(=O)CC[C@H]2C(=O)NCC2CCCO2)c2ccccc21 (stereo partly shown) | 15.7
36 | O=C(NC1=NCCS1)c1cccc(S(=O)(=O)N2CCc3ccccc32)c1 | 17.4
37 | FC(F)Oc1ccc(NC(=S)NCC2COc3ccccc3O2)cc1 (stereo not shown) | -5.83
38 | CC(=O)n1cc(Nc2ccc([N+](=O)[O-])cc2)c2ccccc21 | -0.324
39 | CCCN(CCC)C1=CC(=[N+]2CCCC2)CC(C)(C)C1.[I-] | -72.4
40 | COc1ccc(-n2c3c(cc(C(=O)N4CCCCC4)c2=O)C(=O)CC(C)(C)C3)cc1 | 17.4
41 | O=C(N/C(=C\c1ccc([N+](=O)[O-])cc1)C(=O)N1CCCCC1)c1ccco1 | -70.3
42 | Cc1cc(C)c2nc(NC(=O)c3ccc(OCC4CCCO4)cc3)sc2c1 (stereo not shown) | -6.31
43 | c1ccc2oc(-c3csc(NCC4CCCO4)n3)cc2c1 (stereo not shown) | -9.3
44 | CCC(C)N(C(=O)CSc1nnnn1-c1ccccc1OC)C1CCS(=O)(=O)C1 (stereo not shown) | -37.2

Row | Structure (SMILES) | hERG current change (%, negative = inhibition) at 10uM [%]
45 | CC1(c2ccc(C#N)cc2)NC(=O)N(CC(=O)Nc2cc(S(=O)(=O)N3CCOCC3)ccc2Cl)C1=O (stereo not shown) | 9.01
46 | CCCCN(CCCC)CC(O)COc1ccc(Br)cc1 (stereo not shown) | -74.4
47 | Cc1cc(NS(=O)(=O)Cc2ccccc2)no1 | 0.859
48 | CCc1cc(CNC(=O)C2CCC(=O)N(Cc3ccc(Cl)cc3)C2)on1 (stereo not shown) | -43.6
49 | COc1ccc(C(=O)N2CCCc3ccccc32)cc1 | 4.42
50 | CN(C)C(=O)CCN1CCOCC1 | 14.7
51 | CCS(=O)(=O)c1ccc2oc(SCC(=O)N3c4ccccc4CC3C)nc2c1 (stereo not shown) | -13.7
52 | CCCCOc1ccc(C2C(C(=O)c3ccc(C)o3)=C(O)C(=O)N2Cc2ccco2)cc1 (stereo not shown) | 12.4
53 | CCOc1ccccc1NC(=O)c1cccc(N2C(=O)CCC2=O)c1 | 6.06
54 | Cc1ccc(-c2nnc(COC(=O)c3cc(=O)[nH]c4ccccc34)o2)cc1 | -0.621
55 | CCCc1cc(=O)[nH]c(SCC(=O)N2CCN(S(=O)(=O)c3ccc(C)cc3C)CC2)n1 | 13.8
56 | O=C1C(=O)N(CCCn2ccnc2)C(c2cccnc2)/C1=C(/O)c1ccc(F)cc1 (stereo not shown) | 6.47
57 | CC(C)(C)C(=O)OCc1nc(-c2ccc(F)cc2)cs1 | 1.68
58 | COCCNC(=S)N/N=C(\C)c1cc2ccccc2o1 | -33.7
59 | COc1ccc2oc(=O)c(-c3cn4ccc(C)cc4n3)cc2c1 | 15.1
60 | COc1ccc(OC)c(Nc2nc(N)nc(CSc3nnc(-c4ccncc4)o3)n2)c1 | 10.5
61 | CCOc1ccc(C)cc1S(=O)(=O)NC1CCCCC1 | -24.9
62 | CCOc1ccc(-n2c(SCC(=O)NC3CCS(=O)(=O)C3)nnc2-c2cccnc2)cc1 (stereo not shown) | 22.8
63 | O=C(CSc1nc2ccccc2o1)Nc1nc2ccccc2s1 | 14.4
64 | COC(=O)C(CO)NC(=O)C(C)NC(=O)CNC(=O)OCc1ccccc1 (stereo not drawn) (Cbz-Gly-Ala-Ser-OMe; configuration not given here) | 28.7
65 | CCc1ccccc1N(CC(=O)NCCc1ccccc1)C(=O)CCC(=O)Nc1ccccn1 | -18.8
66 | CCCc1cc(C(=O)N2CCC(N3CCC(C(=O)NC(C)C)CC3)CC2)n(C)n1 | 0.88

Row | Structure (SMILES) | hERG current change (%, negative = inhibition) at 10uM [%]
67 | O=[N+]([O-])c1cc2c(cc1/C=N/n1cnnc1)OCO2 | 10.4
68 | CN(CC(=O)NC1CCCCCCC1)S(=O)(=O)c1cnc[nH]1 | -12.1
69 | CCCCNC(=O)CNC(=S)N(Cc1ccccc1F)C1CCCCC1 | 12.7
70 | COc1ccc([C@H]2CC(=O)C=C(c3ccc(F)cc3OCc3ccccc3)C2)cc1OC | 12.1
71 | O=C(CSc1nnc(NC(=O)C2CC2)s1)NCc1ccccc1 | 9.19
72 | CCOC(=O)N1CCN(C(=O)CN2C(=O)COc3ccc(C)cc32)CC1 | 1.37
73 | COc1ccc([N+](=O)[O-])cc1NC(=O)C(C)N(C)Cc1cccc(OC)c1OC (stereo not shown) | -1.23
74 | CCN(CC)CCNC(=O)c1c(C)oc2cc(Br)c(OC)cc12 | -32.1
75 | CC(C)N1CCN(Cc2ccc(C#CC(C)(C)O)s2)CC1CCO (stereo not shown) | -13
76 | CCC(C)[C@H](NC(=O)OC(C)(C)C)c1nnc(SCc2c(C)[nH]c(=O)[nH]c2=O)o1 (stereo partly shown) | 0.934
77 | CCc1nc(N)nc2c1C(=O)CC(C)(C)C2 | 6.86
78 | O=C(Nc1ccccc1Cc1ccccc1)C1CC(=O)N(c2ccc3c(c2)OCCO3)C1 (stereo not shown) | 14.1
79 | COc1cc(OC)c2c(-c3ccccc3)cc(=O)oc2c1 | 15.1
80 | CCN1CCC(=NNC(=O)c2ccc(C)c([N+](=O)[O-])c2)CC1 | 7.8
81 | CCC1(C)NC(=O)N(/N=C/c2ccc(C)s2)C1=O (stereo not shown) | 24.9
82 | Cc1ccccc1C(=O)OC1CCCN(C)C1.Cl (stereo not shown) | 15.2
83 | Cc1ccc(N(CC(=O)NC2CCCC2)C(=O)CCC(=O)Nc2nccs2)c(C)c1 | 3.95
84 | Cc1cc(OC(=O)c2cc(F)c(F)cc2Cl)nc(C)n1 | 32.7
85 | Cc1cc2cc(NC(=O)c3ccco3)ccc2[nH]1 | -11.8
86 | Cc1nc(CC(C)C)cc(C(=O)N2CCCC(Nc3ccc(C)c(C)c3)C2)n1 (stereo not shown) | 6.89
87 | O=C(Cc1ccc(S(=O)(=O)N2CCCCC2)cc1)NCc1ccc(Cl)cc1 | -45.8
88 | CCN(C(=O)Nc1cccc(Cl)c1)c1ccccc1 | 1.43
